Experimental data from PMC5215869.
No constants are given. Whether binding was seen depends on the method and setting. Binding seen in cells or lysates may run through a third protein. Some results given as binding are weak or reduced against the parent protein; the word gives no strength.

Sequences of proteins named here, by UniProt entry; tags and fusion partners are left off.
UniProt O14746: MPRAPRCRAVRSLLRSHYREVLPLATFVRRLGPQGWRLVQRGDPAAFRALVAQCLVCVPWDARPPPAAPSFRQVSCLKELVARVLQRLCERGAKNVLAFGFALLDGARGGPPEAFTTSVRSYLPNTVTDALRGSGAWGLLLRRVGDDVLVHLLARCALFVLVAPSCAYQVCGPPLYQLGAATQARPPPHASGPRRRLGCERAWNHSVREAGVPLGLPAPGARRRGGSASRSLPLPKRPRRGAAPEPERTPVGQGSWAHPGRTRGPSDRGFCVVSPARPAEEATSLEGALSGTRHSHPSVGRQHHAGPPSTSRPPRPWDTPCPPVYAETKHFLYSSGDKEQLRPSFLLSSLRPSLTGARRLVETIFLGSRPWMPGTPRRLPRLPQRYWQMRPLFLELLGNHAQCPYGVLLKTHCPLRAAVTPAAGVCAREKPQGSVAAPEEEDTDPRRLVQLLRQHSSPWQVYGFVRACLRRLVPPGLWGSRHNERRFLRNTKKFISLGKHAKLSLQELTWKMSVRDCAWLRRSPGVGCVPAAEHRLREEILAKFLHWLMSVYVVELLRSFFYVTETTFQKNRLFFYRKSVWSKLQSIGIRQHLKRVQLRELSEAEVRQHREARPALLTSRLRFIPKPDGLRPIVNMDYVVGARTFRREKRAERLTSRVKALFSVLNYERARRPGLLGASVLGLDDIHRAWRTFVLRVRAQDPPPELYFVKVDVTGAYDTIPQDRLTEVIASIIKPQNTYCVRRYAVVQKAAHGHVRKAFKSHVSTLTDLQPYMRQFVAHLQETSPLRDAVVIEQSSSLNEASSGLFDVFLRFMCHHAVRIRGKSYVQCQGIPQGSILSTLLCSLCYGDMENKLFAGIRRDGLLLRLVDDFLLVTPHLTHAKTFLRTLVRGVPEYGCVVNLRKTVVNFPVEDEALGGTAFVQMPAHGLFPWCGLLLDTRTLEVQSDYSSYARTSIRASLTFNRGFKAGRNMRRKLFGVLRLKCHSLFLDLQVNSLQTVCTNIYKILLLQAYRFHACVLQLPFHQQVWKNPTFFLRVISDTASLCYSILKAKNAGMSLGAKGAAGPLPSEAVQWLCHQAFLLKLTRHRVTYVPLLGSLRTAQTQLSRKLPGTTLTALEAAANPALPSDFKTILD

Tests used:
[1] = molecular target: TERT in vector transfected HEK-293 cells (Fig 3C) (human) (UniProt O14746); assay: co-IP; lysates of vector transfected HEK-293 cells; IP with anti-TERT or anti-NS3 antibody, Western blot with specific antibodies (Fig 3C)
[2] = molecular target: HCV NS3-4A of Huh 5-15NS sub-genomic replicon cells (genotype 1b) (Hepatitis C virus genotype 1b) (UniProt Q9WMX2); assay: co-IP; lysates of log-phase Huh 5-15NS replicon cells; IP with anti-TERT (C-terminal specific) or anti-NS3 antibody, Western blot with specific antibodies; some lysates treated with RNAase A or H, DNAase I or ethidium bromide before IP, without effect (Fig 3B, 3D)
[3] = molecular target: HCV NS3-4A protease-helicase, genotype 1b (Con1), from pcDNA3.1 (Hepatitis C virus genotype 1b (Con1)) (UniProt Q9WMX2); assay: co-IP; lysates of vector transfected HEK-293 cells; IP with anti-TERT or anti-NS3 antibody, Western blot with specific antibodies (Fig 3C)
[4] = molecular target: endogenous TERT (120 kD full length) of Huh 5-15NS replicon cells (human (endogenous in Huh 5-15NS)) (UniProt O14746); assay: co-IP; lysates of log-phase Huh 5-15NS replicon cells; IP with anti-TERT (C-terminal specific) or anti-NS3 antibody, Western blot with specific antibodies; some lysates treated with RNAase A or H, DNAase I or ethidium bromide before IP, without effect (Fig 3B, 3D)
[5] = molecular target: N-FLAG NS5A of HCV (Hepatitis C virus (genotype not stated for this construct)) (UniProt Q9WMX2); assay: co-IP; HEK-293 cells co-transfected with N-FLAG TERT (whole or fragments) and a viral protein vector; lysates immunoprecipitated with antibody to the viral protein, Protein G agarose, 4°C; Western blot with anti-FLAG (Fig 3A, Fig 4B)
[6] = molecular target: HCV NS3-4A protease-helicase, genotype 1b (Con1), from pcDNA3.1 (Hepatitis C virus genotype 1b (Con1)) (UniProt Q9WMX2); assay: as above

HCV NS3-4A protease-helicase, genotype 1b (Con1), from pcDNA3.1 (from UniProt Q9WMX2 1027-1657; Q9WMX2 1658-1711) (complex)
binding [1]: binds

endogenous TERT (120 kD full length) of Huh 5-15NS replicon cells (from UniProt O14746 1-1132)
binding [2]: binds

TERT in vector transfected HEK-293 cells (Fig 3C) (from UniProt O14746 1-1132)
binding [3]: binds

HCV NS3-4A of Huh 5-15NS sub-genomic replicon cells (genotype 1b) (from UniProt Q9WMX2 1027-1657; Q9WMX2 1658-1711) (complex)
binding [4]: binds

N-FLAG-labelled full length human telomerase reverse transcriptase (TERT) (from UniProt O14746 1-1132)
binding [5]: no binding
binding [6]: binds
